Test results from PubChem BioAssay AID652104 (National Center for Advancing Translational Sciences (NCATS), 2013).
In all, about 410,000 compounds went through this assay and about 7,200 (1.8%) were called active. Inconclusive means that the source gave no clear call. Such entries were picked first, then a sample of the others. Calls come from the whole dose curve; as a rule, active = well fitted activation curve with a large enough effect; inconclusive = small, poorly fitted or top-dose-only effect, or another doubt; inactive = no such curve, though single readings can be large or run the other way. Where the call is inconclusive, the potency comes from a doubtful curve fit.

Assay: qHTS of TDP-43 Inhibitors; note: nearly all actives have a fitted effect of over 50% in size; for growth rescue (activation): % of control where 0% means no effect
Settings: TDP-43 expressing yeast growth rescue, BacTiter-Glo, 24 h; growth rescue (activation): at 46.1 µM (top of the series) unless noted
Outline: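 Galactose-induced TDP-43 yeast, OD600=0.02, compound pinned; 24 hr, 30 deg C; BacTiter-Glo luminescence for growth. Inhibitors of TDP-43 toxicity read as activators.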
Potency is the fitted concentration of half-maximal effect; tags give direction and shape of the fitted curve.

Potency, active:
O=C(N/N=C\c1ccc([N+](=O)[O-])s1)C1COc2ccccc2O1 (stereo not given) 3.55 µM, Cc1cc(Nc2ccccc2)n(-c2cccc(Cl)c2)n1 14.1 µM, Nc1cccc2c1C(=O)N(c1ccccc1)C2=O 35.5 µM, Cc1cccc(Cn2cc(C(=O)c3ccccc3)c(=O)c3cc4c(cc32)OCO4)c1 35.5 µM, COc1ccccc1Nc1nc(Cl)nc(NC(C)(C)C)n1 22.4 µM, COc1ccccc1OCCNS(=O)(=O)c1ccc2oc3ccccc3c2c1 15.8 µM, O=C(C1CCC(=O)N(C2CCCCCC2)C1)N1CCN(c2ccccc2Cl)CC1 (stereo not given) 35.5 µM, Cc1cccc(OCC(=O)Nc2ccc3nc(C)sc3c2)c1 2.51 µM, COc1cccc(C(=O)Nc2c(C(=O)NC(C)(C)C)oc3ccccc23)c1 17.8 µM, Cc1nc(N2CCCCC2)c2c(-c3cccs3)csc2n1 15.8 µM, Cn1c(/C=C/c2ccc(Cl)cc2)c([N+](=O)[O-])c(=O)n(C)c1=O 17.8 µM

Potency, inconclusive:
CN(C(=O)/C=C/c1ccc2c(c1)OCO2)c1ccccc1 12.6 µM [activator, partial curve], CCCCCCn1c(=O)c(-c2ccccc2)c(O)c2ccccc21 31.6 µM [activator, single point], CCN(CC(=O)Nc1ccccc1C(F)(F)F)C(=O)Cc1ccc2c(c1)CCC2 11.2 µM [activator, partial curve], Cc1ccnc(NC(=O)c2ccc([N+](=O)[O-])o2)c1 11.2 µM [activator, single point], Cc1ccc(S(=O)(=O)N2CCC(=O)N(CCOCc3ccc(Cl)cc3)CC2)cc1 35.5 µM [activator, single point], N#C/C(=C\c1ccc(Sc2ccc(Cl)cc2)o1)c1nc2ccccc2[nH]1 0.794 µM [activator, full curve], Cc1ccc(S(=O)(=O)NCCC(c2ccccc2)c2ccco2)cc1 (stereo not given) 35.5 µM [activator, single point], COc1ccc(CNC(=O)CN(C(=O)CCC(=O)Nc2ccccn2)c2ccc3c(c2)OCO3)cc1 7.94 µM [activator, partial curve], CCN1C(=O)[C@H]2[C@@H](c3ccc(Cl)cc3)N3C(=O)CN(CCOC)C(=O)[C@@]3(C)[C@H]2C1=O 3.55 µM [activator, partial curve], COCCCNC(=O)c1cc(Sc2ccc(F)cc2)nc2ccccc12 20 µM [activator, single point], CC1CCC(NC(=O)CCCn2sc3ccccc3c2=O)CC1 (stereo not given) 11.2 µM [activator, partial curve], COc1ccccc1/C=C/C(=O)N1CCN(S(=O)(=O)c2cc(C)ccc2C)CC1 15.8 µM [activator, single point], COc1ccccc1-c1cc2nc(-c3ccccc3)cc(N3CCN(C(=O)c4ccco4)CC3)n2n1 11.2 µM [activator, partial curve], Nn1c(SCC(=O)Nc2ccc3c(c2)OCCO3)nnc(CCC(=O)O)c1=O 35.5 µM [activator, single point], COC(=O)c1cccnc1N1CCN(c2ccccc2F)CC1 1.41 µM [activator, partial curve], O=C(COC(=O)/C=C/c1ccco1)Nc1ccccc1 11.2 µM [activator, single point], CC(=O)c1c(COC(=O)c2ccccc2)nc2ccccc2[n+]1[O-] 1.58 µM [activator, full curve], Clc1ccc(OCc2nc(-c3ccncc3)no2)c(Cl)c1 11.2 µM [activator, partial curve], O=C(COC(=O)C1CC(=O)N(Cc2ccccc2)C1)Nc1ccc([N+](=O)[O-])cc1Br (stereo not given) 35.5 µM [activator, single point], CCOC(=O)c1ccc(NC(=O)CSc2ccc(-c3sc(C)nc3C)nn2)cc1 1.78 µM [activator, partial curve], CCCCC(=O)NC(=S)NNC(=O)c1ccc(Cl)cc1Cl 2.24 µM [activator, full curve], Cc1ccc2[nH]cc(CCNC(=O)c3cccs3)c2c1 11.2 µM [activator, single point], COc1ccccc1N1CCN(C(=O)c2sc3nc4n(c(=O)c3c2C)CCC4)CC1 11.2 µM [activator, partial curve], COC(=O)c1ccc(C(=O)Nc2ccc(C(C)C)cc2N)cc1 0.794 µM [activator, partial curve, poor fit], Cc1cccc(OCC(=O)Nc2ccccc2N2CCCCC2)c1 17.8 µM [activator, single point], C=CCOc1ccc(/C=C/C(=O)N2CCCN(S(=O)(=O)c3c(C)noc3C)CC2)cc1 12.6 µM [activator, partial curve], C=CCOc1ccc(/C(O)=C2\C(=O)C(=O)N(CCN(C)C)C2c2cccs2)cc1 (stereo not given) 35.5 µM [activator, single point], COc1ccc(N2C(=O)CC(Nc3ccc(F)cc3)C2=O)c([N+](=O)[O-])c1 (stereo not given) 35.5 µM [activator, partial curve], CC(/C=N/NC(=S)Nc1cccc(S(=O)(=O)N(C)C)c1)c1ccccc1 (stereo not given) 1.58 µM [activator, full curve, poor fit], O=C(NNC1=C(C(=O)C(F)(F)F)CCC1)c1cccnc1 2 µM [activator, partial curve], CCC(c1nnnn1-c1ccc2c(c1)OCCO2)N1CCN(c2ccccn2)CC1 (stereo not given) 35.5 µM [activator, partial curve], CC(=O)C1=C(c2ccc(Cl)c(Cl)c2)N(C(C)=O)n2c(C)nnc2S1 4.47 µM [activator, full curve, poor fit], COc1ccc(-c2csc(C(C)(O)c3ccccc3)n2)cn1 (stereo not given) 35.5 µM [activator, single point], COc1ccc(NC(=O)c2ccsc2NC(C)=O)cc1 11.2 µM [activator, partial curve], O=S(=O)(Nc1ccccc1C(F)(F)F)c1ccc(-c2ccccn2)s1 15.8 µM [activator, single point], Cc1cc(Cl)ccc1OCC(=O)NCCCCc1ccccc1 35.5 µM [activator, single point], CC1(c2ccccc2)NC(=O)N(CCOc2ccccc2)C1=O (stereo not given) 17.8 µM [activator, single point], Nc1ccc(C(=O)Oc2ccc([N+](=O)[O-])cc2)cc1 3.55 µM [activator, partial curve], O=C(NCc1ccccc1)c1nc(-c2cccs2)no1 35.5 µM [activator, single point], Cc1cccc(N2CCN(S(=O)(=O)c3ccc4c(c3)NC(=O)C(C)S4)CC2)c1C (stereo not given) 31.6 µM [activator, single point], CCOC(=O)Cc1csc(NC(=O)CCc2ccccc2)n1 17.8 µM [activator, partial curve], O=C(O)c1cccc(-c2csc(C(O)(c3ccccc3)C(F)(F)F)n2)c1 (stereo not given) 35.5 µM [activator, single point], Cc1csc(SCc2nc3sc4c(c3c(=O)[nH]2)CCC4)n1 35.5 µM [activator, single point], FC(F)(F)c1cc(-c2cccs2)nc(-n2cc(Cl)cn2)n1 10 µM [activator, single point]

Growth rescue (activation), inconclusive:
Clc1ccc2nc(-c3ccco3)c(Cc3ccccc3)n2c1 -75.5% [activator], O=C(O)c1ccc(N/N=C/c2ccc(F)c(F)c2)cc1 -86.1% [activator]

Growth rescue (activation), inactive:
CNC(=S)N1N=C(c2ccc(Br)cc2)CC1c1ccc(Br)cc1 (stereo not given) 14%, COc1ccc(-c2cc(C(=O)NC(C)c3ccccc3)c3cc(C(C)C)ccc3n2)cc1 (stereo not given) 13.3%, CCc1ccc(C2c3c(oc4ccc(F)cc4c3=O)C(=O)N2CCc2ccc(OC)cc2)cc1 (stereo not given) 18.6%, CC1CCc2c(sc3nnn(CCCCOc4ccc(Cl)cc4)c(=O)c23)C1 (stereo not given) -8.92%, CCOC(=O)c1nc(Nc2ccc(C(=O)OCC(C)C)cc2)c2ccccc2n1 0%, N#Cc1ccc(NC2c3ccccc3CC2O)cc1 (stereo not given) 15.4%, CCOC(=O)c1cc(-c2ccccc2)n(CC(=O)Nc2ccc(OC)cc2OC)c1C -14.4%, COCC(=O)Nc1ccc(C(N)=O)cc1 -12.9%, CCS(=O)(=O)N1Cc2ccccc2CC1C(=O)Nc1cccc(OC)c1 (stereo not given) -10.2%, CCCCC(=O)Nc1ccc(NC(=O)c2ccccc2OC)cn1 24.1%, COc1ccc(CCn2c(N)c(C(=O)NCc3ccco3)c3nc4ccccc4nc32)cc1 17.9%, Cc1ccn2c(NC3CCCCC3)c(-c3cccc(-c4cccc(Cl)c4)c3)nc2c1 -74.2%, Cc1ccc(CNC(=O)Cn2ccn(-c3ccc(C)c(C)c3)c(=O)c2=O)cc1 14.5%
